# In the supplement of paper PMC3334620:
# Over roughly 33,000 sequences, “E-score (-0.5 to 0.5)” has its median near -0.041; the highest 2% begin near 0.37. Some of the results follow.
# Biological target: T1, Ecm22 (UniProt Q05958)
# T1 sequence: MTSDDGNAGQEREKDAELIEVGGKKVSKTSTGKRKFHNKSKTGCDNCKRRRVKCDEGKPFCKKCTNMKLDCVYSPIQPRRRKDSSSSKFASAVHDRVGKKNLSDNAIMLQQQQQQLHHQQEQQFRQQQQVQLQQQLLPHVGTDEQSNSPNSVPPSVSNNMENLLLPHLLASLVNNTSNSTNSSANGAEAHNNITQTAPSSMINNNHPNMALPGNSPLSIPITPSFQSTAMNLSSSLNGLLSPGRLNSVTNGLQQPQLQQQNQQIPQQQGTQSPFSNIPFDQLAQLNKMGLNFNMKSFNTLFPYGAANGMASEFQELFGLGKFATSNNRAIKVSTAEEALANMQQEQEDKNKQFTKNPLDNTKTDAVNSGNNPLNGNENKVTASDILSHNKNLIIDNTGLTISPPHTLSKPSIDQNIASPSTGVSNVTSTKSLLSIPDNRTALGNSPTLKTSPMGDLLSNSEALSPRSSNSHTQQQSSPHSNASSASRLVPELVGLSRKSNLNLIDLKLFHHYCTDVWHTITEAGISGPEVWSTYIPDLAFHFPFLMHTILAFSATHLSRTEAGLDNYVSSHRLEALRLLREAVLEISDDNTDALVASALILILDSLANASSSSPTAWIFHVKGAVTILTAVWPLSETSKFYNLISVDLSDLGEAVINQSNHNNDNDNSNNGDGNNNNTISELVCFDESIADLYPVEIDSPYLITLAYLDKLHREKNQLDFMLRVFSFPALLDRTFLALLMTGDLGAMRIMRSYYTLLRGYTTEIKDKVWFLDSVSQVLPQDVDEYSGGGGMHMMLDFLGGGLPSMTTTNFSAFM
# Assay: PBM E-score (8-mer binding enrichment) (E-score (-0.5 to 0.5)); higher = stronger / more preferred TF binding; most listed sequences are background and not binding sites
# Conditions: protein concentration: 200 nM; construct: GST-full length
# Procedure: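 Universal 'all 10-mer' protein binding microarrays (Agilent AMADID 015681) probed with GST-tagged S. cerevisiae TFs (full-length or DBD) made by in vitro transcription/translation (PURExpress), about 100-200 nM. Bound TF was detected with fluorescent anti-GST. Each ungapped 8-mer (which stands for itself and its reverse complement) is scored by the PBM enrichment score (E-score), a modified Wilcoxon-Mann-Whitney statistic from -0.5 to +0.5, computed with the Universal PBM Analysis Suite. Scale: above 0.35 generally sequence-specific binding.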
row,Sequence,PBM E-score
1,AGAAAAGC,0.0292
2,GGCGCACA,-0.322
3,GACGAGAA,0.138
4,TAATATCA,-0.117
5,CGTAAAGC,0.348
6,ATCTTACA,-0.0615
7,CTCATCCA,-0.213
8,TTGGGAAA,0.105
9,CCCGGTAG,-0.0581
10,ACCGAGCC,0.245
11,CCAATCGG,-0.218
12,TACTAGGA,-0.176
13,AGGACACT,-0.364
14,CCAAGAAG,-0.132
15,CCGCATAA,0.119
16,AAATCTTA,0.0399
17,CTTTCGTC,0.0061
18,CTGACATA,-0.102
19,ACTATTCG,0.151
20,CGGCACTA,-0.0606
21,GATTGCAA,0.00502
22,ACAGTAGC,0.0447

row,Sequence,PBM E-score
1,AGATGCGC,0.0221
2,AGAGGTCC,-0.0819
3,CTGAGAGC,-0.0232
4,CGAACTAC,0.12
5,ACTATAAC,-0.0993
6,GCCGACGA,0.0279
7,ACGTAGAC,0.00036
8,CGATTCGC,0.221
9,CGTTAAAA,0.287
10,CGGGTAAG,0.123
11,ACTATCCC,-0.227
12,ACCCCCGG,-0.189
13,GGAACACA,-0.0908
14,AAGAGCGC,-0.0779
15,CACTGCCC,-0.159
16,AGGCGGCG,-0.0664
17,CGGCCGTC,0.0171
18,CATCCGAA,0.152
19,AAAGCGGA,-0.0774
20,GCACCTCC,-0.271
21,CTTGGAGC,-0.0888
22,GCCGTATA,0.463

row,Sequence,PBM E-score
1,CATGGAGC,-0.193
2,AGAGACCG,-0.0917
3,ATTGTCAC,-0.0911
4,GCCCAATA,0.0557
5,CCTAACCA,-0.0936
6,GGGTAGCA,-0.0748
7,TCACCAGA,-0.114
8,GGTCGTTA,0.339
9,CCCCGCTA,0.119
10,GTGCCACA,-0.259
11,ATGTTGCA,0.0806
12,AAAGGTCA,-0.144
13,GGGACGAC,-0.0755
14,AGCGACGA,0.195
15,TACCATAA,-0.0241
16,TACAATAA,-0.0954
17,CCGCGAGC,0.0918
18,GCGTTACC,0.0263
19,AATGTGCC,-0.234
20,GGGAGACA,-0.222
21,GTGTCGCA,0.162
22,CCCGCGTC,0.034

row,Sequence,PBM E-score
1,TCCTTTAA,-0.113
2,GAGTAGCC,-0.0661
3,CGAGTGAC,0.292
4,ATATAATG,-0.0445
5,ACTGTGGG,-0.221
6,AGATTGCA,-0.151
7,CCGGGCAA,-0.117
8,CGTAGATA,0.103
9,GCGACACA,0.113
10,CACCAGTC,-0.0627
11,ATCGTAGG,0.144
12,TACTCGAA,0.187
13,AAAGCATC,0.0748
14,AAGTAAGG,-0.0906
15,AGTTCCCC,-0.0578
16,AATCGACC,-0.0105
17,ATGGGGAA,-0.0102
18,GTGATCAC,-0.0665
19,AGTGAAGC,-0.127
20,AAGGGGGC,-0.169
